# In PubChem BioAssay AID651820 (National Center for Advancing Translational Sciences (NCATS), 2012):
# About 12,000 (3.5%) of roughly 340,000 compounds were called active. The inconclusive results got no clear call from the source; some entries with a clear call stand among them for comparison. Calls follow the shape of the dose curve; as a rule, active = well fitted inhibition curve with a large enough effect; inconclusive = small, poorly fitted or top-dose-only effect, or another doubt; inactive = no such curve, though single readings can be large or run the other way. Potencies of inconclusive entries are left out as doubtful fits.
# Test: qHTS Assay for Inhibitors of Hepatitis C Virus (HCV)
# Conditions: Huh7.5.1 HCVcc-Cre (HCVcc is cell-culture hepatitis C virus) infection, luciferase reporter, 44 h; activity change, negative = inhibition: at 41.8 µM (top of the series) unless noted
# In short: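 Luciferase read-out (15 sec integration) after a 15 min room-temperature substrate step quantifies HCVcc-Cre infection. Cells, 1,000 per well, had compound added 4 h post-plating, then virus at ~0.5 moi, and were cultured 44 h.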
# % is scaled to controls: 0 for no effect and ±100 for the full control effect; potency is read from the fitted curve at half-maximal effect; tags tell the direction and shape of the fitted curve.
Structure (SMILES),Potency,"activity change, negative = inhibition"
CCc1ccc(NC(=S)/N=C(\N)Nc2nc(C)c3cc(CC)ccc3n2)cc1,active: 15.8 µM,–
Cc1cccc(NC(=S)NCc2ccc(F)cc2)c1,–,inactive: -8.01%
Cc1cc(-c2ccccc2)nc(N/N=C/c2ccc([N+](=O)[O-])cc2)n1,active: 10 µM,–
O=[N+]([O-])c1ccc2nc(-c3ccccn3)[nH]c2c1,"inconclusive [inhibitor, single point]",–
O=C(CSCc1ccc(F)cc1)Nc1ccc(F)cc1,–,inactive: 10%
O=C1C(Cl)=C(NCc2cccnc2)C(=O)c2ccccc21,active: 12.6 µM,–
CCOC(=O)c1c(NC(=O)COC(=O)c2c(C)noc2C)sc2c1CCC2,"inconclusive [inhibitor, partial curve, poor fit]",–
O=C(O)CCc1ccc(-c2cccs2)n1-c1ccc(C(=O)O)cc1,–,inactive: 19%
Cc1c(OC(C)C(=O)NCc2ccncc2)ccc2c3c(c(=O)oc12)CCC3 (stereo unspecified),"inconclusive [inhibitor, single point]",–
Cc1ccccc1NC(=O)c1nn(C)c2c1CS(=O)(=O)c1ccccc1-2,–,inactive: 23.8%
COc1ccc(S(=O)(=O)Nc2ccc3c(c2)N(C(C)=O)CCC3)cc1,"inconclusive [inhibitor, partial curve]",–
CC(=O)Nc1ccc(C2=NNC(=Nc3ccc(S(=O)(=O)N4CCOCC4)cc3)SC2)cc1,"inconclusive [inhibitor, single point]",–
CCC1Nc2ncnc(N3CCN(c4ccccc4)CC3)c2N(Cc2ccccc2)C1=O (stereo unspecified),"inconclusive [inhibitor, single point]",–
CC12CCC3c4ccc(O)cc4CCC3C1CC(=NO)C2O (stereo unspecified),–,inactive: 17.9%
O=C(CSc1ccc(-c2ccco2)nn1)Nc1cccc(F)c1,"inconclusive [inhibitor, single point]",–
Cc1nc(NCc2ccco2)c2c(C)c(C)sc2n1,active: 10 µM,–
N#Cc1ccc(OCC(=O)Nc2nc(-c3cccnc3)cs2)cc1,"inconclusive [inhibitor, partial curve]",–
O=C(COc1cc2oc(=O)c3c(c2cc1Cl)CCC3)NCC(O)c1ccccc1 (stereo unspecified),"inconclusive [inhibitor, partial curve]",–
Cc1ccc(S(=O)(=O)N(C)/N=C/C=C/c2ccccc2)cc1,–,inactive: 5.86%
CN(C)c1ccc(CN(C(=O)c2ccc(Cl)c([N+](=O)[O-])c2)C2CCS(=O)(=O)C2)cc1 (stereo unspecified),"inconclusive [inhibitor, single point]",–
Nn1c(SCc2cn3cc(Cl)ccc3n2)nnc1-c1ccncc1,–,inactive: 8.93%
Cc1nc2ccccc2c2oc(C(=O)NCCCN3CCCC(C)C3)cc12 (stereo unspecified),"inconclusive [inhibitor, partial curve]",–
CCCCC(=O)NC(=S)Nc1cccc(NC(=O)c2ccco2)c1,"inconclusive [inhibitor, single point]",–
Cc1ccc(NC(=O)c2cc(C)n(-c3ccccc3)c2C)cc1,"inconclusive [inhibitor, partial curve]",–

Structure (SMILES),Potency,"activity change, negative = inhibition"
CCN(CC)CCCN=C1N[C@@H](c2cccc(C(F)(F)F)c2)C(C(=O)OC)=C(C)N1CC,active: 10 µM,–
CCOC(=O)c1c(C)n(-c2ccccc2)c2ccc(OCCN(C)C)cc12,active: 15.8 µM,–
CCc1ccc(S(=O)(=O)NCc2csc(-c3cccnc3)n2)s1,"inconclusive [inhibitor, single point]",–
COCCCn1c(=N)c(C(N)=S)cc2c(=O)n3cccc(C)c3nc21,"inconclusive [inhibitor, single point]",–
CC(C)CN(C(=O)COC(=O)CCc1c[nH]c2ccccc12)c1c(N)n(Cc2ccccc2)c(=O)[nH]c1=O,"inconclusive [inhibitor, partial curve]",–
CCOc1cc(N2CCOCC2)c(OCC)cc1NC(=O)CSc1ncccn1,"inconclusive [inhibitor, partial curve, poor fit]",–
CCn1c(=O)cc(OCC(=O)N2CCN(c3cccc(C(F)(F)F)c3)CC2)c2ccccc21,"inconclusive [inhibitor, partial curve]",–
CN(C(=O)COC(=O)c1ccccc1Nc1ccccc1)c1c(N)n(Cc2ccccc2)c(=O)[nH]c1=O,"inconclusive [inhibitor, partial curve]",–
COc1cc(OC)c(OC)cc1CNC(=O)c1ccc(COc2ccccc2)cc1,"inconclusive [inhibitor, single point]",–
Cc1nn(-c2ccccc2)c(Cl)c1C(=O)N1CCN(c2ncnc3c2cnn3-c2ccccc2)CC1,active: 2.24 µM,–
O=C(NC1CC1)c1ccc(-c2nc3ccccc3s2)s1,"inconclusive [inhibitor, single point]",–
O=C(NC1CCCN(CCc2ccccc2)C1)c1c[nH]c2ccccc12 (stereo unspecified),–,inactive: -5.12%
CN(C)c1ccc(NC(=O)c2ccc(Cn3cc([N+](=O)[O-])cn3)cc2)cc1,"inconclusive [inhibitor, full curve, poor fit]",–
CCc1ccc2nc(NC(=O)CN3C(=O)NC4(CCCC4)C3=O)sc2c1,"inconclusive [inhibitor, partial curve]",–
Cc1cc(N2CCC(C)CC2)nc(NCc2ccccc2)n1,active: 6.31 µM,–
CCc1ccc2c(c1)C(O)(CC(=O)c1cccs1)C(=O)N2 (stereo unspecified),–,inactive: 5.17%
COc1ccc([N+](=O)[O-])cc1NC(=O)c1ccc(Br)s1,"inconclusive [inhibitor, single point]",–
CCC(C)(C(=O)NC1CCCC1)N(Cc1cccs1)C(=O)c1ccccn1 (stereo unspecified),"inconclusive [inhibitor, single point]",–
CCCCN(CC)CCCNC(=S)Nc1ccc2nc(N3CCN(CC)CC3)cc(C)c2c1,"inconclusive [inhibitor, single point]",–
O=[N+]([O-])c1ccc(NN=Cc2ccc(O)cc2)nc1,–,inactive: -22.5%
COc1ccc(S(=O)(=O)NCc2ccncc2)cc1OC,"inconclusive [inhibitor, partial curve]",–
Cc1cc(C(=O)CSc2nncs2)c(C)n1-c1ccc2c(c1)OCO2,"inconclusive [inhibitor, partial curve]",–
C[C@H](CO)N1C[C@H](C)[C@@H](CN(C)S(=O)(=O)c2ccccc2)Oc2c(NC(=O)CCC(F)(F)F)cccc2C1=O,–,inactive: -4.44%
O=C(NCCc1ccccc1F)C1CCCN(c2nc3ccccc3s2)C1 (stereo unspecified),–,inactive: -24.2%

Structure (SMILES),Potency,"activity change, negative = inhibition"
CC(=O)c1c(C)[nH]c(C(=O)OCC(=O)Nc2cccc(S(=O)(=O)N(C)C)c2)c1C,active: 6.31 µM,–
O=C(c1cnn2c(C(F)F)cc(C3CC3)nc12)N1CCc2ccccc2C1,active: 8.91 µM,–
C=CCn1c(O)c(N=NC(=O)CNC(=O)Cc2ccccc2)c2ccccc21,"inconclusive [inhibitor, single point]",–
Oc1ccc2ccccc2c1CNc1ccc(Br)cn1,"inconclusive [inhibitor, single point]",–
Cc1n[nH]c(C)c1CCc1nc2c3ccccc3nc(SCC(=O)Nc3ccccc3F)n2n1,"inconclusive [inhibitor, partial curve, poor fit]",–
CCN(CC)C(=O)CC(c1ccc(N(C)C)cc1)c1c(OC)cc(OC)c2c(-c3ccccc3)cc(=O)oc12 (stereo unspecified),"inconclusive [inhibitor, single point]",–
COc1ccc(OC)c(-c2nc(C(=O)NCC3CCCO3)cc3c2[nH]c2ccccc23)c1 (stereo unspecified),active: 10 µM,–
COc1ccc(S(=O)(=O)N/N=C\c2ccc3c(c2)OCO3)c(OC)c1,active: 3.55 µM,–
CCC(=O)N(CCc1ccccc1)Cc1cc2cc(OC)ccc2[nH]c1=O,–,inactive: -3.8%
COc1ccc(CNC(=O)COc2ccccc2C(=O)c2cnn(-c3ccccc3)c2)cc1OC,"inconclusive [inhibitor, single point]",–
CN1CCN(S(=O)(=O)c2ccc(Br)s2)CC1,–,inactive: 16.7%
O=C1C=C(c2ccc(F)cc2OCc2ccccc2)C[C@@H](c2ccc(F)cc2)C1,"inconclusive [inhibitor, full curve]",–
CC(C)(C)CNc1cc(N2CCCC2)ccc1[N+](=O)[O-],"inconclusive [inhibitor, partial curve]",–
OC(CNCCNc1ncccc1C(F)(F)F)Cn1ccc2ccccc21 (stereo unspecified),"inconclusive [inhibitor, single point]",–
CCN(CC)S(=O)(=O)c1ccc(NC(=O)CC(NC(C)=O)c2ccccc2)cc1 (stereo unspecified),–,inactive: 14%
COc1ccc(N(CC(=O)N2CCCCCC2)S(=O)(=O)c2ccccc2[N+](=O)[O-])c(OC)c1,–,inactive: 5.83%
COC(=O)C(NC(=O)c1ccc(F)cc1)(Nc1ncc(S(=O)(=O)c2ccc([N+](=O)[O-])cc2)s1)C(F)(F)F (stereo unspecified),"inconclusive [inhibitor, single point]",–
CCOc1ccc(NC(=O)Nc2cc(OCC(F)(F)F)cc(OCC(F)(F)F)c2)cc1,"inconclusive [inhibitor, full curve]",–
OC(Cn1ccnc1)c1ccc(Cl)cc1Cl (stereo unspecified),–,inactive: 8.52%
COc1ccc(C(C[N+](=O)[O-])n2nc(C)cc2C)cc1 (stereo unspecified),"inconclusive [inhibitor, single point]",–
O=C1N(c2ccccc2C(F)(F)F)OC1(Cc1ccccc1)c1ccccc1 (stereo unspecified),–,inactive: -6.76%
COC(=O)CCC(=O)NC(=S)Nc1ccccc1F,–,inactive: 22.2%
CN(CCOc1ccc(Cl)cc1)C(=O)c1ccccc1SCC(=O)N1CCCC1,active: 10 µM,–
